From PubChem BioAssay (NCI)
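1) Cells in 96-well plates. 2) Compound, 48 h, 5 concentrations. 3) Linear interpolation between surrounding doses. 4) Unreached endpoint = highest concentration. The concentration for 50% growth inhibition is given as GI50. TGI marks complete inhibition of growth.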

System: NCI-H322M lung
Assay: inhibition of tumour cell growth, NCI panel, 48 h

SMILES | GI50 [µM] | TGI [µM]
C=CC(=O)Nc1ccc(C(=O)/C=C/c2ccc(N(C)C)cc2)c(O)c1 | 7.31 | 22
c1n[nH]cc1-c1nc2ccc3[nH]ncc3c2c2c1CC1(CCOCC1)CC2 | 15.4 | 50.3
